The whole screen tested about 310,000 compounds, of which about 14,000 (4.5%) showed an effect of 50% or more. Effects have a minus sign here. Some of the results follow.
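Further: peak tail current of the secondary pulse compared with the same well before compound.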

The target of this test is human ether-à-go-go-related gene (hERG) potassium channel (human, UniProt Q12809). In words: primary screen, population patch clamp on CHO cells stably expressing hERG.
Sequence of human ether-à-go-go-related gene (hERG) potassium channel (Q12809 whole entry, looked up): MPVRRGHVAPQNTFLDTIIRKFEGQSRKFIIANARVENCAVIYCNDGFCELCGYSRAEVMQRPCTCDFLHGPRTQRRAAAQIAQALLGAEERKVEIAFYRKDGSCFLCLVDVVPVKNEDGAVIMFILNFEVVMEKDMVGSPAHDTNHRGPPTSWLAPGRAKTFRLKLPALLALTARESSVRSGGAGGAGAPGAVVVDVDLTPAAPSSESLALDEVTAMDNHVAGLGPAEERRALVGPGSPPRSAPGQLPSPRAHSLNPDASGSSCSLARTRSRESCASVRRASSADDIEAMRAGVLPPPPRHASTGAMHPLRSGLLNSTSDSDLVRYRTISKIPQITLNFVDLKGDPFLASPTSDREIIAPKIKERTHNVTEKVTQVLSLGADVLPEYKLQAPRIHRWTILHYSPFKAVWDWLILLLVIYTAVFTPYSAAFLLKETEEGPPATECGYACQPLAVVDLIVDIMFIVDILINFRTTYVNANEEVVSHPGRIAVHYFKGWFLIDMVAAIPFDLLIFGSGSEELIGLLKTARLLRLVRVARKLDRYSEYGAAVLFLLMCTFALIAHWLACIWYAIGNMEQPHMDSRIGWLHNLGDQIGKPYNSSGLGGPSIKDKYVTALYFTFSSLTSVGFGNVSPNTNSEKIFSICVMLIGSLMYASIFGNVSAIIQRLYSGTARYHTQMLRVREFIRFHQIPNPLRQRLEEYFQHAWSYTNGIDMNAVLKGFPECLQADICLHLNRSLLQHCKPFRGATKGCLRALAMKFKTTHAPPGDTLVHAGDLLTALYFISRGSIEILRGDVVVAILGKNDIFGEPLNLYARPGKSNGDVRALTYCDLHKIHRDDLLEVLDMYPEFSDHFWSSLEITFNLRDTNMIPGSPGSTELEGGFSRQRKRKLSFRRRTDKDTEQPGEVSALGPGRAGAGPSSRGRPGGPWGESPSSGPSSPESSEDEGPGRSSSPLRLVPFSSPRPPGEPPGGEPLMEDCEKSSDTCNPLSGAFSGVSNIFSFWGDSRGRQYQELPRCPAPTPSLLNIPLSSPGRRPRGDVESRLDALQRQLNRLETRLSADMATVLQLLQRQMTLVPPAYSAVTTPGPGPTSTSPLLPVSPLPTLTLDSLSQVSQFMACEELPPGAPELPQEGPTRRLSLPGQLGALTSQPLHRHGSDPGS
Take `Cc1ccc2c3c(cccc13)-c1ccccc1C2=O`: the “hERG current change (%, negative = inhibition) at 10uM” value is given as 8.03%.

For the molecule `CCN1C(=O)N[C@@H](c2ccc(Br)cc2)C(C(=O)OC)=C1C`, the “hERG current change (%, negative = inhibition) at 10uM” value was -13.6%.

With `CC(C)CN(C(=O)CN(C)C(=O)Cc1ccc(Cl)cc1)c1c(N)n(CC(C)C)c(=O)[nH]c1=O`, the “hERG current change (%, negative = inhibition) at 10uM” value stood at 10.8%.

In the case of `CCn1c(SCC(=O)Nc2cccc(C)n2)nnc1-c1ccco1`, the “hERG current change (%, negative = inhibition) at 10uM” value is -50.9%.

As to `S=C(c1ccc(-c2ccc(Cl)cc2Cl)o1)N1CCCC1`, the “hERG current change (%, negative = inhibition) at 10uM” value amounted to 16.9%.

`COc1ccc(CCNC(=O)CCCn2c(SCC#N)nc3ccccc3c2=O)cc1OC`: the “hERG current change (%, negative = inhibition) at 10uM” value was -12.7%.

In the case of `CCN(CCn1cccn1)Cc1c(C(=O)N2C[C@@H](C)O[C@@H](C)C2)nc2ccc(Cl)cn12`, the “hERG current change (%, negative = inhibition) at 10uM” value amounted to 17.4%.

For `C=CCNC(=S)NNC(=O)c1cc(Cl)ccc1OC`, the “hERG current change (%, negative = inhibition) at 10uM” value is given as 18.2%.

Regarding `O=C(NC1CCCC1)C(c1ccc(F)cc1)N(C(=O)c1csnn1)C1CCCC1` (stereo not shown), the “hERG current change (%, negative = inhibition) at 10uM” value is reported as 9.14%.

With `CC1CCCC(NC(=O)CCNS(=O)(=O)c2ccc(Br)cc2)C1C` (stereo not shown), the “hERG current change (%, negative = inhibition) at 10uM” value was -27.5%.

For `O=C(Cn1cc(C(=O)C(F)(F)F)c2ccccc21)NCc1ccco1`, the “hERG current change (%, negative = inhibition) at 10uM” value worked out at 7.02%.

For `Cc1oc(-c2ccccc2F)nc1CS(=O)(=O)CC(=O)NCCCN1CCc2ccccc2C1`, the “hERG current change (%, negative = inhibition) at 10uM” value is recorded as -48.6%.

For the molecule `CCN(C(=O)c1ccc(S(=O)(=O)N(C)C)cc1)C(C)C(=O)Nc1ccc(C)cc1` (stereo not shown), the “hERG current change (%, negative = inhibition) at 10uM” value is listed as 14.2%.

Take `C=CCn1c(-c2cccn(Cc3ccccc3)c2=O)n[nH]c1=S`: the “hERG current change (%, negative = inhibition) at 10uM” value was determined as 16.9%.

As for `CCn1cc(C(=O)OCC(=O)NCc2ccccc2Cl)c(=O)c2ccc(C)nc21`, the “hERG current change (%, negative = inhibition) at 10uM” value was 13.9%.

As to `Cc1ccc(S(=O)(=O)c2nc(S(C)(=O)=O)sc2N2CCC(C(N)=O)CC2)cc1`, the “hERG current change (%, negative = inhibition) at 10uM” value is reported as 7.6%.

For the molecule `Cc1cccc(C)c1NC(=O)CNC(=O)c1cccc(S(=O)(=O)NCc2cccs2)c1`, the “hERG current change (%, negative = inhibition) at 10uM” value turned out to be 1.15%.

For the molecule `O=C(Nc1ccc(N2CCCCC2)cc1)c1cc([N+](=O)[O-])cc([N+](=O)[O-])c1`, the “hERG current change (%, negative = inhibition) at 10uM” value came out at 16.8%.

On to `Cc1cc(C(=O)CN2C(=O)NC3(CCCCC3)C2=O)c(C)n1Cc1ccc2c(c1)OCO2`, for which the “hERG current change (%, negative = inhibition) at 10uM” value came out at 5.87%.

As for `CCSc1nc(N)c2c3c(sc2n1)CN(C)CC3`, the “hERG current change (%, negative = inhibition) at 10uM” value is reported as -19.5%.

With `CC(=O)N(Cc1ccco1)Cc1cc2cccc(C)c2n2nnnc12`, the “hERG current change (%, negative = inhibition) at 10uM” value is on record as -3.36%.

With `CC1CCN(CCCNS(=O)(=O)c2cc(Br)cc3c2N(C(=O)C2CC2)CC3)CC1`, the “hERG current change (%, negative = inhibition) at 10uM” value is listed as -26.9%.

On to `O=C(NCc1ccccc1Cl)c1cccc(NC(=O)c2ccccc2)c1`, for which the “hERG current change (%, negative = inhibition) at 10uM” value was -8.78%.

With `NS(=O)(=O)c1ccc(-n2ncc3c(=O)[nH]c(SCC(=O)Nc4nccs4)nc32)cc1`, the “hERG current change (%, negative = inhibition) at 10uM” value is given as 18.1%.

Regarding `CN(C)C(=O)c1cc(Cl)ccc1Sc1cc(Cl)ccc1Cl`, the “hERG current change (%, negative = inhibition) at 10uM” value is recorded as -6.03%.

For `COc1cccc(CNC(=O)C(CCSC)NS(=O)(=O)c2ccc3c(c2)oc(=O)n3C)c1` (stereo not shown), the “hERG current change (%, negative = inhibition) at 10uM” value is -3.38%.

As for `Cc1cccc(C)c1NC(=O)COC(=O)Cc1ccsc1`, the “hERG current change (%, negative = inhibition) at 10uM” value was found to be 12.8%.

In the case of `O=[N+]([O-])c1ccc(N2CCCC2)nc1N1CCCC1`, the “hERG current change (%, negative = inhibition) at 10uM” value was determined as 3.34%.

`CCOC(=O)N1CCC2(CC1)C(C#N)=C(N)Oc1c2sc2nc(C)cc(C)c12`: the “hERG current change (%, negative = inhibition) at 10uM” value worked out at 12.9%.

Take `CC(Oc1cccc(F)c1)C(=O)Nc1ccc(N2CCOCC2)cc1` (stereo not shown): the “hERG current change (%, negative = inhibition) at 10uM” value is given as 4.79%.

Consider `O=C(NCc1ccco1)C1CCCN1S(=O)(=O)c1ccccc1C(F)(F)F` (stereo not shown), for which the “hERG current change (%, negative = inhibition) at 10uM” value was -3.75%.

As for `Cc1cc2c(C)nc(N/N=C/c3ccc(F)cc3)nc2o1`, the “hERG current change (%, negative = inhibition) at 10uM” value is recorded as -52.7%.

Take `COc1cc(SC)ccc1C(=O)Nc1cc(C)c(OCC(=O)N2CCOCC2)c(C)c1`: the “hERG current change (%, negative = inhibition) at 10uM” value is given as -18.8%.

For `Cc1ccc(OCC(=O)NNC(=O)C(C)Sc2ncnc3sc(C)c(C)c23)cc1` (stereo not shown), the “hERG current change (%, negative = inhibition) at 10uM” value is recorded as -15.2%.

Take `Clc1ccc(CO/N=C2\CCCc3nonc32)cc1`: the “hERG current change (%, negative = inhibition) at 10uM” value is listed as -19.2%.

With `Cc1ccc(-c2cc(C(=O)N3CCCCCC3)no2)cc1`, the “hERG current change (%, negative = inhibition) at 10uM” value was 13.4%.

For the molecule `O=C(NCc1cccnc1)c1cc2nc(-c3cccs3)cc(C(F)(F)Cl)n2n1`, the “hERG current change (%, negative = inhibition) at 10uM” value is given as -34.3%.

In the case of `O=C(N/N=C/c1cccc(Cl)c1)C(c1ccncc1)N1CCOCC1` (stereo not shown), the “hERG current change (%, negative = inhibition) at 10uM” value stood at 11.8%.

On to `CC(C)(C)c1csc(NC(=O)CSc2nc3ccccc3c(=O)[nH]2)n1`, for which the “hERG current change (%, negative = inhibition) at 10uM” value is -1.86%.

Consider `CCOc1ccc(N2C(=O)C3Sc4[nH]c(=O)sc4C(c4ccc(OC)c(OC)c4)C3C2=O)cc1` (stereo not shown), for which the “hERG current change (%, negative = inhibition) at 10uM” value was -1.7%.

Take `COc1ccc(Cl)cc1S(=O)(=O)n1ccnc1C(C)C`: the “hERG current change (%, negative = inhibition) at 10uM” value was found to be 1.33%.

Consider `Cc1cc(C(=O)Nc2nc3c(s2)CCCC3)no1`, for which the “hERG current change (%, negative = inhibition) at 10uM” value is -16.8%.

With `Cc1ccc(S(=O)(=O)NCC(=O)N(CC(=O)NCC2CCCO2)Cc2ccco2)cc1` (stereo not shown), the “hERG current change (%, negative = inhibition) at 10uM” value stood at 0.269%.

The record behind these values is article PMC4336329 (PLoS ONE, 2015).
